Screen size: about 310,000 compounds; about 14,000 (4.5%) showed an effect of 50% or more. The effect is printed as a negative number. Some of the results follow.
target: human ether-à-go-go-related gene (hERG) potassium channel (human, UniProt Q12809); experiment: primary screen, population patch clamp on CHO cells stably expressing hERG
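Further: peak tail current of the secondary pulse compared with the same well before compound.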

human ether-à-go-go-related gene (hERG) potassium channel, sequence (Q12809 whole entry, looked up): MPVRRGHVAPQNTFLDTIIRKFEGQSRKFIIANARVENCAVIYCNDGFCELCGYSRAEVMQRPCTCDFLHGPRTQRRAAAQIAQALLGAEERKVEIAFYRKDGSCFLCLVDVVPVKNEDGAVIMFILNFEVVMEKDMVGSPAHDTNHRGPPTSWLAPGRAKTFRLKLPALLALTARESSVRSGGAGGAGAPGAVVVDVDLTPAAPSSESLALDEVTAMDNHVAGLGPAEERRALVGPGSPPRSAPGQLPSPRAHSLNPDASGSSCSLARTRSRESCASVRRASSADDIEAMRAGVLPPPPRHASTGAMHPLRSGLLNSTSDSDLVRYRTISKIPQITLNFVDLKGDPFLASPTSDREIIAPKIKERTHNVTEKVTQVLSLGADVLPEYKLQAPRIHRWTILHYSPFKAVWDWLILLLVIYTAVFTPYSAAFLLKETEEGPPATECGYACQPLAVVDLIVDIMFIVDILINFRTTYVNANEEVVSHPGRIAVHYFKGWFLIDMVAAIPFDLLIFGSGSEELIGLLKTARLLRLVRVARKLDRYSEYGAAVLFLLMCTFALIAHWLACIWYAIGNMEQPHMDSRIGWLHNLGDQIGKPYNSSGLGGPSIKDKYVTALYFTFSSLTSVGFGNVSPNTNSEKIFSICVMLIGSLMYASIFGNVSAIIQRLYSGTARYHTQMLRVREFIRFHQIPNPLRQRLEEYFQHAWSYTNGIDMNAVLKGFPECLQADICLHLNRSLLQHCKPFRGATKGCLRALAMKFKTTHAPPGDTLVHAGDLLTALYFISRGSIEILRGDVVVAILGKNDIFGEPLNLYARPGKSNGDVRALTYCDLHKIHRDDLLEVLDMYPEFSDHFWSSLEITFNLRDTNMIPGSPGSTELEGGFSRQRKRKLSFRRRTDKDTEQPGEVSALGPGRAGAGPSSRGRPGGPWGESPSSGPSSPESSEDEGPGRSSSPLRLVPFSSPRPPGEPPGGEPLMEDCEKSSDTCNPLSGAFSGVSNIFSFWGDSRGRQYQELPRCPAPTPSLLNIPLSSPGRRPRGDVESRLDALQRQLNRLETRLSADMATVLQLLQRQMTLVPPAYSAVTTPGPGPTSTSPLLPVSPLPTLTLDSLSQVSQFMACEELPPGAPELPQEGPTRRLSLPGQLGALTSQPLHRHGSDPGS

SMILES	hERG current change (%, negative = inhibition) at 10uM
O=C(NCc1ccccc1CN1CCCC1)c1cc2cc(Cl)ccc2o1	-74.6%
CCN1CCN(Cc2nc3c(c(=O)n(C)c(=O)n3C)n2CC(=O)c2ccccc2)CC1	7.92%
CN1CCC(=NNC(=O)C(=O)NCc2ccccc2)CC1	-2.22%
Cc1cccc(C(=O)N2CCCC(N3CCN(c4ccccc4F)CC3)C2)n1 (stereo not shown)	4.76%
CCOC(=O)C(C)Sc1nnc2n1C(C)(C)Cc1ccccc1-2 (stereo not shown)	-12.7%
Cc1ccc(CNC(=O)C2COc3ccccc3O2)cc1 (stereo not shown)	13.1%
COc1ccc(C(=O)NC2CCN(S(=O)(=O)c3ccc(F)cc3)CC2)cc1	13.6%
COc1cccc(N/C=C/C(=O)c2ccc(Cl)cc2)c1	-1.99%
COc1ccc(CNC(=O)CSc2ncnc3ccccc23)cc1OC	-1.39%
CCN(CC)S(=O)(=O)c1ccc(C(=O)N2CCc3ccccc32)cc1	-0.652%
O=C(Nc1cnn(C23CC4CC(CC(C4)C2)C3)c1)c1cc(-c2ccccc2)on1	-9.54%
CC(NC(=O)CCC(=O)N1CCN(S(=O)(=O)c2ccc(Cl)cc2)CC1)c1ccccc1 (stereo not shown)	-38.1%
CC(=O)N1c2ccccc2Oc2cc3ccccc3cc21	4.69%
COc1cccc(-c2cc(C(=O)NCC3CCCO3)c3ccccc3n2)c1 (stereo not shown)	-0.277%
COc1ccc(-c2cc(C(F)(F)F)n3ncc(C(=O)N(C)Cc4ccccc4)c3n2)cc1	-17%
Clc1ccc(Oc2nc(N3CCOCC3)nc(N3CCOCC3)n2)cc1	-1.64%
Cn1c(=O)oc2cc(S(=O)(=O)Nc3ccc4c(c3)OCCO4)ccc21	4.22%
Cc1cccnc1NC(=O)c1c(O)c2cccc3c2n(c1=O)CCC3	7.16%
COc1ccc(OC)c(C2C(C(=O)c3ccc(C)o3)=C(O)C(=O)N2c2cc(C)on2)c1 (stereo not shown)	10.2%
COc1cc(C(=O)NC(=S)Nc2csc(-c3ccc(F)cc3)n2)cc(OC)c1OC	15.1%
CCOc1cc2ccccc2cc1C(=O)Nc1ccccn1	-3.68%
CC1C/C(=N/NC(=O)c2cccs2)CC(C)(C)C1 (stereo not shown)	3.84%

SMILES	hERG current change (%, negative = inhibition) at 10uM
N#C/C(=C\c1cn[nH]c1-c1ccccc1Br)C(=O)O	46.4%
Cc1ccc(C(=O)NC2CCN(C(=O)Nc3ccc(F)cc3)CC2)cc1	1.24%
O=C(CNC(=S)N(Cc1ccccc1F)C1CCCCC1)NCCCN1CCOCC1	6.08%
Cc1ccc(C)c(S(=O)(=O)N2CCN(CC(=O)NC(=O)NCc3ccco3)CC2)c1	-24.5%
CC(=O)Nc1ccc2c(c1)nc1n2CCN(C(C)c2ccccc2)C1 (stereo not shown)	12.1%
CCOC(=O)C1CCN(C(=O)CCc2c(C)nc3cc(-c4ccc(OC)cc4OC)nn3c2C)CC1	-70.7%
O=C(CSc1nc2ccccc2[nH]1)N1c2ccccc2Sc2ccccc21	7.74%
CCOC(=O)c1ccc2c(c1)C1C=CCC1C(C(=O)OCC)N2 (stereo not shown)	-33.7%
C/C(=N\NC(=O)c1ccc(OC2CCCC2)cc1)c1ccc(C)s1	3.48%
Cc1occc1C(=O)NCCc1cccc(Cl)c1	-2.27%
O=c1c2ccccc2nc2c3ccccc3cnn12	-26.1%
COc1ccc(-c2nc(CS(=O)CC(=O)NCc3ccc4c(c3)OCO4)c(C)o2)cc1OC (stereo not shown)	-14.3%
O=C(COC(=O)/C=C/c1ccc(Cl)cc1)Nc1ccc2[nH]c(=O)[nH]c2c1	16.3%
Cc1ccc(NC(=O)CSCC(=O)NC2CCCCC2)cc1	-7.04%
Cc1nc(-c2ccc(Cl)cc2)sc1C(=O)NN	-1.69%
O=C(CSc1ncnc2scc(-c3ccccc3)c12)N1CCN(Cc2ccc3c(c2)OCO3)CC1	-35.7%
CC(=O)c1ccc(OCCn2c(SCC(=O)O)nc3ccccc32)cc1	9.04%
N#C/C(=C\c1ccccc1)C(=O)Nc1cccnc1	6.36%
Cc1ccc(C(=O)NCC(=O)OCC(=O)N(CC(C)C)c2c(N)n(Cc3ccccc3)c(=O)[nH]c2=O)cc1C	20.3%
CCCCNC(=S)N1CCN(C(c2ccccc2)c2ccccc2)CC1	20.9%
CC(=O)Nn1c(COc2ccccc2C)nc2ccccc2c1=O	-4.17%
Cc1ccc(Nc2c(-c3ccco3)nc3ccccn23)cc1	2.78%

SMILES	hERG current change (%, negative = inhibition) at 10uM
COC(=O)c1ccccc1NC(=O)CSc1nc2ccccc2c(=O)[nH]1	13.6%
CS(=O)(=O)NCc1ccc(C(=O)NCCOc2ccccc2)cc1	-2.18%
O=C(CNc1cc(S(=O)(=O)N2CCOCC2)ccc1NCC1CCCO1)Nc1cccc(F)c1 (stereo not shown)	-12%
CCOc1ccc2ncc(S(=O)(=O)c3ccccc3)c(N3CCN(c4ccc(OC)cc4)CC3)c2c1	-10.9%
Cc1ccc(OCc2nnc(SCC(=O)Nc3ncc(C)s3)o2)cc1	8.46%
COC(=O)CC1=Nc2ccccc2NC(=O)C1	7.33%
Cn1ccnc1Sc1nc2c(c(=O)n(C)c(=O)n2C)n1C	1.07%
CC(C)(c1ccccc1)c1ccc(OCC(O)CNC2CCN(Cc3ccccc3)CC2)cc1.O=C(O)C(=O)O (stereo not shown)	-72.8%
CCn1c(O)c(N=NC(=O)c2ccc(CSc3nncn3C)cc2)c2ccccc21	-10.2%
O=C(NCC(c1ccco1)N1CCN(c2ccccc2F)CC1)C(=O)NC1CC1 (stereo not shown)	0.336%
COc1ccc(C(=O)/C=C/c2ccc(F)cc2)c(OC(=O)c2ccc([N+](=O)[O-])cc2)c1	8.95%
COc1ccc(-n2cnnc2SCC(=O)Nc2cccc(S(=O)(=O)N3CCCCC3)c2)cc1	-18.5%
COc1ccc(Cc2nnc(NC(=O)c3cc(OC)c(OC)c(OC)c3)s2)cc1	-3.71%
Cc1ccccc1OCC(=O)Nc1ccc(Cc2ccncc2)cc1	-25%
Cc1cc(NC(=O)c2cc(Cl)ccc2Cl)no1	6.41%
COc1ccc(N2CCN(C(=O)CNC(=O)c3ccccc3Cl)CC2)cc1	-1.32%
CC(=O)[O-].Cc1cc(C)c(S(=O)(=O)n2cc(C(C)C([NH3+])C(=O)O)c3ccccc32)c(C)c1 (stereo not shown)	18%
CCN1CCN(CCNC(=O)CSCc2nc(-c3ccc(OC)c(OC)c3)oc2C)CC1	3.82%
COc1ccc(N(CC(=O)N2CCN(C)CC2)S(C)(=O)=O)cc1OC	4.86%
COC(=O)c1ccccc1NC(=S)N(C)C	9.9%
O=C1C2C3C=CC(CC3)C2C(=O)N1c1ccccc1 (stereo not shown)	7.75%
CC(C)C(OC(=O)C1CCCO1)C(=O)NC1CCCC1 (stereo not shown)	2.54%

SMILES	hERG current change (%, negative = inhibition) at 10uM
CCOC(=O)CSc1ccccn1	13.1%
COCOc1cc(O)c(C(=O)/C=C/c2ccc(OCOC)c(OCOC)c2)c(OCOC)c1	1.09%
O=C(O)C1C2C=CC(O2)C1C(=O)NCCc1cccc(Cl)c1 (stereo not shown)	19.6%
C=CCn1c(SC)nnc1C1COc2ccccc2O1 (stereo not shown)	-19%
O=C(NCCC(=O)N(Cc1ccco1)Cc1cccs1)c1ccccc1Cl	-16.5%
O=C(CSCc1ccccc1)Nc1ccc(S(=O)(=O)Nc2ncccn2)cc1	15.7%
CCC1CCCCN1CCCNC(=O)Cn1c(=O)c2cccn2c2cccnc21 (stereo not shown)	12.1%
COc1cc(OC)c(C(=O)Nc2ccccc2-c2ccccc2)cc1OC	-25.6%
C/C(=N\N(Cc1ccccc1)c1ccccc1)c1cccnc1	-25.6%
COc1ccc(NC(=O)N2CCCCCC2)c(OC)c1	17%
CN(C)C(/C=C/Nc1cccc([N+](=O)[O-])c1)=C(C#N)C#N	-11.1%
COc1ccc(Cc2nc3ccc(C(=O)N(C)CCn4ccnc4)cc3o2)cc1OC	15.5%
COCCn1c(SCC(=O)NN2C(=O)NC(C)(c3ccccc3)C2=O)nnc1-c1ccncc1 (stereo not shown)	13.8%
O=C(Cc1cccs1)N/N=C/C(Cl)=C/c1ccccc1	18.5%
CCc1nnc(NC(=O)c2cc(-c3ccccn3)nc3ccc(Br)cc23)s1	8.08%
O=C(Cc1cccs1)NCC1CCCO1 (stereo not shown)	7.84%
COC(=O)COc1ccc(S(=O)(=O)NCc2ccc3c(c2)OCO3)cc1C	-2.82%
O=C(CCCN1C(=O)c2cccc3cccc(c23)C1=O)NCc1cccs1	19.9%
Cc1c(-c2nnc(-c3ccc(C(F)(F)F)cc3)o2)cnn1-c1ccccc1	18.8%
Cc1ccc(CC(=O)NCc2ccc(Cl)cc2)cc1	19.4%
O=C(O)CCCC(=O)Nc1ccc(Oc2cccc(C(F)(F)F)c2)nc1	19.4%
CCCC1(c2ccccc2)NC(=O)N(CCN2C(=O)c3ccccc3C2=O)C1=O (stereo not shown)	-13.9%

Source: paper PMC4336329 (PLoS ONE, 2015)
